Test results taken from PubChem BioAssay AID485364 (National Center for Advancing Translational Sciences (NCATS), 2010).
Among all 360,000 compounds or so, about 11,000 (3.1%) were called active. The inconclusive results got no clear call from the source; some entries with a clear call stand among them for comparison. Calls follow the shape of the dose curve; as a rule, active = well fitted inhibition curve with a large enough effect; inconclusive = small, poorly fitted or top-dose-only effect; inactive = no such curve, though single readings can be large or run the other way. No potency is given beside an inconclusive call; the fits are too rough.
Also: nearly all actives have a fitted effect of over 60% in size.
Potency is read from the fitted curve at half-maximal effect; tags tell the direction and shape of the fitted curve.

The compounds below were run against Schistosoma mansoni thioredoxin glutathione reductase (TGR) (UniProt Q962Y6) (assay: qHTS Assay for the Inhibitors of Schistosoma Mansoni Peroxiredoxins). Details: purified TGR, DTNB reduction, TNB absorbance 405 nm; series mostly up to 114 µM.
In short: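 TGR 20 nM + NADPH 100 uM (dispensed conc.), cpd preinc 15 min RT; start with NADPH (500 uM addition) then DTNB (15 mM addition). Kinetic TNB absorbance, 405 nm filter. Four-parameter Hill fit across titration.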
For O=C(Oc1ccccc1N1C(=O)CCC1=O)c1ccco1, the Potency was “inactive”. With O=C(/C=C1\SC(=O)NC1=O)Nc1ccc(F)cc1 the Potency was inconclusive [inhibitor, single point]. In the case of C#CCOCCOCCOCCNc1nc(N2CCN(C(=O)[C@H](CCCCN)n3cc([C@@H](N)C(C)CC)nn3)CC2)nc(N2CCN(C(=O)[C@H](CCCCN)n3cc([C@@H](N)CC(C)C)nn3)CC2)n1 (stereo not given in full), the Potency is reported as active: 39.8 µM. CC(C)CN1CCC(=O)N([C@H](CSc2ccc(Br)cc2)c2ccccc2)CC1 was tested, and the Potency was active: 2.82 µM. With CCOC(=O)C1CCCN(C2CC(=O)N(c3ccc(NC(C)=O)cc3)C2=O)C1 (stereo not given) the Potency was active: 44.7 µM. In the case of c1cnc(N2CCN(c3ncnc4c3oc3ccccc34)CC2)nc1, the Potency is reported as inconclusive [inhibitor, partial curve]. For COc1ccccc1CCCNC(=O)C1CCC(=O)N(CCc2ccc(Cl)cc2)C1 (stereo not given), the Potency was inconclusive [inhibitor, full curve, poor fit]. COc1ccc2nc(COC(=O)c3ccco3)c(C(C)=O)[n+]([O-])c2c1 was tested, and the Potency was inconclusive [inhibitor, partial curve]. With COc1ccc2oc(C(=O)Nc3ccc(N4CCOCC4)cc3)c(C)c2c1 the Potency was “inactive”. For NS(=O)(=O)c1ccc(CCNC(=O)c2ccc(Cl)s2)cc1, the Potency was inconclusive [inhibitor, partial curve]. In the case of Cc1cccc(N2CCN(C(=O)CN3C(=O)COc4ccc(S(=O)(=O)N5CCC(C)CC5)cc43)CC2C)c1 (stereo not given), the Potency is reported as “inactive”. With Cc1ccc(/C=C2\SC(N3CCN(C(c4ccccc4)c4ccccc4)CC3)=NC2=O)o1 the Potency was active: 35.5 µM. With Cc1ccc(SC(=O)COc2ccccc2C)cc1 the Potency was active: 11.2 µM. With COc1cccc(CNc2ccc3[nH]c(=O)[nH]c3c2)c1OCc1ccccc1Cl the Potency was inconclusive [inhibitor, partial curve, poor fit]. With Cc1ccc(Cc2c(C)nc3nc(SCC(=O)NCCCN4CCCCCC4)nn3c2C)cc1 the Potency was inconclusive [inhibitor, partial curve]. For CCOC(=O)c1ccc(S(=O)(=O)Nc2ccc3cn[nH]c3c2)cc1, the Potency was “inactive”. O=S(=O)(c1ccccc1)c1nc(-c2cccs2)oc1NCC1CCCO1 (stereo not given) was tested, and the Potency was inconclusive [inhibitor, partial curve]. In the case of CCOc1ccc(C)cc1S(=O)(=O)n1ccc(C)n1, the Potency is reported as “inactive”. For Cc1c(Cl)cccc1NC(=O)Cn1cccc1, the Potency was inconclusive [inhibitor, partial curve]. Brc1ccc(CSc2nnc(-c3ccccn3)n2Cc2ccco2)cc1 was tested, and the Potency was active: 39.8 µM.
